These compounds were tested on MCF7 cells (breast tumor cells) WT (assay: cells). Conditions: Homo sapiens, read-out: proliferation MCF7 (WT) IC50 (nM).

SMILES	IC50 [nM]
Oc1ccc2c(c1)CCCC(c1cccc3ncccc13)=C2c1ccc(O[C@H]2CCN(CCCF)C2)cc1 [Example 152, 5-[4-[(3S)-1-(3-fluoropropyl)pyrrolidin-3-yl]oxyphenyl]-6-(5-quinolyl)-8,9-dihydro-7H-benzo[7]annulen-2-ol]	0.4
Oc1ccc2c(c1)CCCC(c1cccc3[nH]ccc13)=C2c1ccc(O[C@H]2CCN(CCCF)C2)cc1 [Example 20, 5-[4-[(3S)-1-(3-fluoropropyl)pyrrolidin-3-yl]oxyphenyl]-6-(1H-indol-4-yl)-8,9-dihydro-7H-benzo[7]annulen-2-ol]	5
Oc1ccc2c(c1)CCCC(c1ccc(C(F)(F)F)nc1F)=C2c1ccc(O[C@H]2CCN(CCCF)C2)cc1 [Example 129, 5-[4-[(3S)-1-(3-fluoropropyl)pyrrolidin-3-yl]oxyphenyl]-6-[2-fluoro-6-(trifluoromethyl)-3-pyridyl]-8,9-dihydro-7H-benzo[7]annulen-2-ol]	0.1
CCOc1ccc(C2=C(c3ccc(O[C@H]4CCN(CCCF)C4)cc3)c3ccc(O)cc3CCC2)c(F)c1 [Example 42, 6-(4-ethoxy-2-fluoro-phenyl)-5-[4-[(3S)-1-(3-fluoropropyl)pyrrolidin-3-yl]oxyphenyl]-8,9-dihydro-7H-benzo[7]annulen-2-ol]	0.4
Oc1ccc2c(c1)CCCC(c1ccc(C(F)(F)F)nc1Cl)=C2c1ccc(O[C@H]2CCN(CCCF)C2)cc1 [Example 155, 6-[2-chloro-6-(trifluoromethyl)-3-pyridyl]-5-[4-[(3S)-1-(3-fluoropropyl)pyrrolidin-3-yl]oxyphenyl]-8,9-dihydro-7H-benzo[7]annulen-2-ol]	0.1
Oc1ccc2c(c1)CCCC(c1ccc(S(F)(F)(F)(F)F)cc1)=C2c1ccc(O[C@H]2CCN(CCCF)C2)cc1 [Example 184, 5-[4-[(3S)-1-(3-fluoropropyl)pyrrolidin-3-yl]oxyphenyl]-6-[4-(pentafluorosulfanyl)phenyl]-8,9-dihydro-7H-benzo[7]annulen-2-ol]	1
Oc1ccc2c(c1)CCCC(c1ccc3c(c1)OCCO3)=C2c1ccc(O[C@H]2CCN(CCCF)C2)cc1 [Example 49, 6-(2,3-dihydro-1,4-benzodioxin-6-yl)-5-[4-[(3S)-1-(3-fluoropropyl)pyrrolidin-3-yl]oxyphenyl]-8,9-dihydro-7H-benzo[7]annulen-2-ol]	0.4
CC(F)(F)c1ccc(C2=C(c3ccc(O[C@H]4CCN(CCCF)C4)cc3)c3ccc(O)cc3CCC2)cc1 [Example 201, 6-[4-(1,1-difluoroethyl)phenyl]-5-[4-[(3S)-1-(3-fluoropropyl)pyrrolidin-3-yl]oxyphenyl]-8,9-dihydro-7H-benzo[7]annulen-2-ol]	0.02
CCOc1ccc(C2=C(c3ccc(O[C@H]4CCN(CCCF)C4)cc3)c3ccc(O)cc3CCC2)c(F)c1Cl [Example 103, 6-(3-chloro-4-ethoxy-2-fluoro-phenyl)-5-[4-[(3S)-1-(3-fluoropropyl)pyrrolidin-3-yl]oxyphenyl]-8,9-dihydro-7H-benzo[7]annulen-2-ol]	0.5
Oc1ccc2c(c1)CCCC(c1ccc3ocnc3c1)=C2c1ccc(O[C@H]2CCN(CCCF)C2)cc1 [Example 54, 6-(1,3-benzoxazol-5-yl)-5-[4-[(3S)-1-(3-fluoropropyl)pyrrolidin-3-yl]oxyphenyl]-8,9-dihydro-7H-benzo[7]annulen-2-ol]	0.1
N#Cc1ccc(C2=C(c3ccc(O[C@H]4CCN(CCCF)C4)cc3)c3ccc(O)cc3CCC2)cc1F [Example 85]	0.8
O=C(O)c1ccc2c(c1)CCCC(c1ccc(Cl)c(F)c1)=C2c1ccc(O[C@H]2CCN(CCCF)C2)cc1 [Example 53, 6-(4-chloro-3-fluoro-phenyl)-5-[4-[(3S)-1-(3-fluoropropyl)pyrrolidin-3-yl]oxyphenyl]-8,9-dihydro-7H-benzo[7]annulene-2-carboxylic acid]	10

Reference: US9714221B1 (priority 2016, dated 2017)
